# PubChem BioAssay AID624296 (National Center for Advancing Translational Sciences (NCATS), 2012)
# The campaign covered roughly 350,000 compounds. About 9,900 (2.8%) were called active. The inconclusive results got no clear call from the source; some entries with a clear call stand among them for comparison. The call rests on the fitted dose curve; in most records, active means well fitted activation curve with a large enough effect; inconclusive means small, poorly fitted or top-dose-only effect; inactive means no such curve, though single readings can be large or run the other way. No potency is given beside an inconclusive call; the fits are too rough.
# Assay: A quantitative high throughput screen for small molecules that induce DNA re-replication in MCF 10a normal breast cells. Further: nearly all actives have a fitted effect of over 50% in size. On activity, positive = re-replication: % of control where 0% means no effect.
# Settings: MCF 10A DNA re-replication, Hoechst nuclear intensity, 48 h; activity, positive = re-replication: at 46.1 µM (top of the series)
# Potency means the concentration at half of the fitted maximal effect; tags describe the fitted curve by direction and shape.
Structure (SMILES),Potency,"activity, positive = re-replication"
Cc1cc(C(=O)N2CCN(c3ccccc3Cl)CC2)c(C)o1,"inconclusive [activator, single point]",
CCOC(=O)c1ccc(NC(=O)Nc2ccn(C)n2)cc1,,inactive: 6.12%
CCNC(=O)/C(C#N)=C/c1c(N2CCOCC2)nc2ccccn2c1=O,,inactive: 8.38%
CC[C@@H]1CCCCc2ccccc2[C@@H](C(=O)C[C@@H](O)CC(C)=O)OC1=O,,inactive: -37.5%
CCN1C(=O)[C@H]2[C@@H](c3ccc(-c4ccc(OC)cc4)c(OC)c3)N[C@@](Cc3ccccc3)(C(=O)OC)[C@H]2C1=O,"inconclusive [activator, single point]",
COc1ccc(NC(=O)/C(C#N)=C\c2ccc(-c3cccc(C(=O)O)c3C)o2)cc1,,inactive: 7.07%
CC(C)c1cccc(-c2ccc3c(c2)S(=O)(=O)c2cccc(C(=O)NCc4ccccc4)c2C3=O)c1,"inconclusive [activator, full curve, poor fit]",
Cc1cc(C)n2nc(C(=O)OCC(=O)N(C)C3CCS(=O)(=O)C3)nc2n1 (stereo unspecified),,inactive: 2.34%
O=C(Nc1cccc(S(=O)(=O)N2CCCCC2)c1)c1cc(=O)[nH]c2ccccc12,,inactive: -1.06%
NCCS(=O)(=O)O,inactive,
CCOC(=O)N1CCN(C(=O)COC(=O)c2ccccc2NCCO)CC1,,inactive: -2.19%
CCCOC(=O)c1ccc(NC(=O)c2cc(Cl)ccc2OC)cc1,"inconclusive [activator, partial curve, poor fit]",
O=c1ccc2ccc(Oc3ccc(Cl)cc3[N+](=O)[O-])cc2o1,,inactive: 6.38%
Cc1nnc(NC(=O)CSc2nc3ccccc3o2)s1,"inconclusive [activator, single point]",
CCN(c1ccccc1)S(=O)(=O)c1ccc(C(=O)NCCCn2ccnc2)cc1,"inconclusive [activator, full curve]",
CC(=O)n1cc([C@H]2C=C(C(=O)N3CCN(Cc4ccc5c(c4)OCO5)CC3)O[C@@H](OCCCCO)C2)c2ccccc21,"inconclusive [activator, full curve, poor fit]",
NC(=O)c1ccc(Cn2c(C(=O)c3cc(Cl)c(N)c(Cl)c3)c3ccccc3[n+]2[O-])cc1,active: 11.6 µM,
COC(=O)c1c(NC(=O)COC(=O)[C@@H](NS(=O)(=O)c2ccccc2)C(C)C)sc2c1CCC2,"inconclusive [activator, single point]",
COc1ccc(C2CC(Cn3cc(C#N)c(=O)n(C)c3=O)ON2C)cc1 (stereo unspecified),"inconclusive [activator, single point]",
O=C1COC(c2ccccc2)=CN1Cc1ccccc1,"inconclusive [activator, full curve]",
COc1ccc(/C=N/Nc2cc(N(C)C)nc(N(C)C)n2)cc1,"inconclusive [activator, single point]",
Cc1ccc(S(=O)(=O)N(Cc2ccccc2)c2ccccc2C(=O)NCc2ccco2)cc1,"inconclusive [activator, full curve, poor fit]",
CCOc1ccc(C(Nc2ccc(C)cc2)P2(=O)OCCC(C)O2)cc1 (stereo unspecified),,inactive: 0.423%

Structure (SMILES),Potency,"activity, positive = re-replication"
CC(=O)Nc1ccc(S(=O)(=O)Oc2ccccc2N2CCCCC2)cc1,"inconclusive [activator, single point]",
Cc1cc(C)c(NC(=O)CSc2nnc(CN3CCOCC3)n2C)c(C)c1,,inactive: -2.58%
Cc1cc(SCc2ccc([N+](=O)[O-])cc2)nc(=O)[nH]1,"inconclusive [activator, single point]",
Cc1ccccc1Cn1cc(S(=O)(=O)CC(=O)Nc2nccs2)c2ccccc21,,inactive: -25.4%
CCOc1ccc(/C=C/C(=O)OC(C)C(=O)NC2CCCCC2C)cc1OC (stereo unspecified),"inconclusive [activator, partial curve, poor fit]",
COc1ccc(/C=C2\SC(=O)N(CC(=O)Nc3cccc(C)c3)C2=O)cc1O,active: 20.6 µM,
CCC(c1nnc(SC(C)C(=O)NC2CC2)n1-c1ccc(OC)cc1)N(C)C (stereo unspecified),,inactive: 0.409%
Cc1ccc(S(=O)(=O)N2CCN(c3ncnc4scc(-c5ccccc5)c34)CC2)cc1,"inconclusive [activator, partial curve, poor fit]",
COc1ccc(OCC(=O)c2c(O)c3ccccc3oc2=O)cc1,"inconclusive [activator, single point]",
O=C(CCl)c1ccc2c(c1)CCN2C(=O)C1CCCCC1,"inconclusive [activator, partial curve, poor fit]",
COc1ccccc1Nc1nc(-c2c(C)[nH]c3ccccc23)cs1,active: 5.8 µM,
CCOC(=O)c1c(N)sc(C(=O)Nc2ccccc2)c1C,,inactive: -5.66%
CCc1cc2cc3c(cc2nc1SCC(=O)Nc1nnc(C)s1)OCCO3,active: 3.26 µM,
O=C(CCl)Nc1cn(-c2ccccc2)nc1-c1ccccc1,"inconclusive [activator, single point]",
CCCS(=O)(=O)N1CCN(C2CCC(C)CC2)CC1 (stereo unspecified),,inactive: 3.58%
COc1cc(OC)c(/C=N/N2CCN(c3ccccc3OC)CC2)c(OC)c1,"inconclusive [activator, single point]",
Cc1nc(SCc2nc3ccccc3[nH]2)c2oc3ccc(Br)cc3c2n1,,inactive: -13.1%
O=C(NCc1ccccc1)Nc1cccc2ccccc12,"inconclusive [activator, full curve, poor fit]",
Cc1ccc(CNC(=O)c2ccc([N+](=O)[O-])o2)cc1,"inconclusive [activator, single point]",
CC(C)NC(=O)C(Cc1ccccc1)N1C(=O)c2ccccc2C1=O (stereo unspecified),,inactive: 15.6%
COc1nc(C)nc(Cl)c1NC1=NCCN1,inactive,
Nc1cc(=O)[nH]n1C1CCCCC1,"inconclusive [activator, full curve, poor fit]",
CS(=O)(=O)N(CC(=O)N1CCc2ccccc2C1)c1cccc([N+](=O)[O-])c1,"inconclusive [activator, partial curve, poor fit]",
